# In PubChem BioAssay AID1347073 (National Center for Advancing Translational Sciences (NCATS), 2019):
# Hit rate of the full screen: of about 45,000 compounds, about 200 (0.44%) were called active. Another 7% or so got no clear call; they are omitted. The call rests on the fitted dose curve; in most records, active means well fitted activation curve with a large enough effect; inconclusive means small, poorly fitted or top-dose-only effect; inactive means no such curve, though single readings can be large or run the other way. This is one part of the list.
# Experiment: qHTS of TDP-43 Inhibitors: NCGC Sytravon Library Screen; further: 0% is about no effect; nearly all actives have a fitted effect of over 55% in size
# Conditions: yeast TDP-43 toxicity rescue, BacTiter-Glo growth, 24 h; series mostly up to 46.1 µM; growth rescue (activation): at the top concentration
# Method in brief: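 TDP-43-expressing yeast, pregrown in raffinose, seeded at OD600 0.02 in galactose medium with compound for 24 hr at 30 deg C. Growth read by BacTiter-Glo luminescence, so rescue of toxicity appears as activation.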
row,SMILES,growth rescue (activation)
1,CC1(C2CC2)NC(=O)N(CC(=O)NCC(=O)Nc2ccc(F)c(F)c2F)C1=O (centres undefined),inactive: -5.13%
2,Cc1ccc(C(=O)NCC(=O)O)s1,inactive: -9.72%
3,Cc1ccc(SCCC(=O)Nc2cccnc2)cc1,inactive: 12.8%
4,COc1cccc(Oc2nccc(N(C)C)c2C#N)c1,inactive: 0.535%
5,O=C(NCc1cccs1)C1CC(O)CN1C(=O)Nc1ccccc1 (centres undefined),inactive: -11.9%
6,CCOc1ccc(C(=O)Nc2ccc(NC(=S)NC(=O)CC)cc2)cc1Cl,inactive: -10.6%
7,CCOc1ccc(N2C(=O)CC(SC(=NC)Nc3cccc(F)c3)C2=O)cc1 (centres undefined),inactive: 0.857%
8,CCc1nc(SCc2ccc([N+](=O)[O-])cc2)n[nH]1,inactive: 9.64%
9,Cc1ccc(NC(=O)CCc2ccc(S(=O)(=O)N3CCOCC3)cc2)c(O)c1,inactive: -3.36%
10,CC1CCCN(C(=O)COC(=O)Cn2cnc3ccccc32)C1 (centres undefined),inactive: 6.66%
11,COc1cc(C(=S)N2CCOCC2)cc(OC)c1OC,inactive: -9.17%
12,COC(=O)c1ccc(C(=O)N2CCCC(C)(C(=O)NS(=O)(=O)C3CC3)C2)cc1 (centres undefined),inactive: -4.95%
13,CCOc1ccc(S(=O)(=O)N/N=C2/CCCC(=O)C2)cc1,inactive: 2.27%
14,CCOC(=O)c1c(NC(=O)c2ccccc2)sc2c1CCc1ccccc1-2,inactive: 8.82%
15,CN1c2ccccc2N(C)C1(C)c1ccccc1,inactive: -0.353%
16,O=C(NCCc1ccccc1)C1CCN(S(=O)(=O)N2CCCCCC2)CC1,inactive: -8.55%
17,CC1=C(C(=O)Nc2cccc(C(F)(F)F)c2)C2(CCCCC2)OC1=O,inactive: 11.1%
18,CC1CCN(CCCNC(=O)c2ccc3c(Cl)c4c(nc3c2)CCCC4)CC1,inactive: 0.309%
19,c1cnn(Cc2cnc(N3CCOCC3)s2)c1,inactive: 8.31%
20,CN(Cc1cn(C)nc1-c1ccccc1F)Cc1nccn1C,inactive: 2.57%
21,CC(=O)Nc1ccc(NC(C)=O)c(NC2OCC(O)C(O)C2O)c1 (centres undefined),inactive: 24.5%
22,O=C1CC(c2ccc(F)cc2)CC2=C1C(c1ccc([N+](=O)[O-])o1)Nc1ccccc1N2 (centres undefined),inactive: 5.68%
23,COc1cc(/C=C/C(=O)c2ccc(O)cc2)ccc1OCC#N,inactive: -14.2%
24,O=C(COc1ccccc1[N+](=O)[O-])N/N=C/c1ccncc1,inactive: 7.98%
25,NS(=O)(=O)c1ccc(CNS(=O)(=O)c2ccc(Cl)nc2)cc1,inactive: -7.11%
26,CS(=O)(=O)N(CC(=O)N1CCc2ccccc2C1)c1ccc(Cl)cc1F,inactive: 14.8%
27,Cc1cc(C)n(-c2ccc(Cl)c(C(=O)O)c2)n1,inactive: -16.7%

row,SMILES,growth rescue (activation)
1,Cn1cc(Cl)c(C(=O)OCC(=O)c2ccccc2)n1,inactive: 20.3%
2,Cc1cccc(C(=O)OCC(=O)N2CC(=O)Nc3ccccc32)c1C,inactive: -18.7%
3,O=C(CSCc1ccccc1)N=Nc1c(O)[nH]c2ccccc12,inactive: -6.38%
4,CCC(=O)Nc1cccc(-c2cn3ccccc3n2)c1,inactive: 4.5%
5,CCOC(=O)CNC(=O)CN1C(=O)CC(c2ccco2)Sc2ccccc21 (centres undefined),inactive: 11.2%
6,Cc1cccc2c1NC(=O)C21OCC(CO)([N+](=O)[O-])CO1 (centres undefined),inactive: -0.997%
7,COc1ccccc1NC(=O)C(C)N(C)CCOc1ccccc1 (centres undefined),inactive: 3.27%
8,CCc1ccccc1NC(=O)Cn1nnc(C(=O)NCc2cccs2)c1N,inactive: 18.3%
9,Cn1nc(C(C)(C)C)cc1C(=O)N1CCCCC1c1cc(C(=O)Nc2ccc(F)c(Cl)c2)no1 (centres undefined),inactive: 6.42%
10,CCc1c(O)nc2ccccn2c1=O,inactive: 15.2%
11,Cc1c(Cl)cccc1NC(=O)CCCn1cnc([N+](=O)[O-])n1,inactive: 39.4%
12,Cc1cc(=O)oc2c3c(cc(OCC(=O)NCCC(=O)N[C@@H](C)C(=O)O)c12)OC(C)(C)CC3,inactive: 3.39%
13,COc1cc([N+](=O)[O-])ccc1NC(=O)COC(=O)c1c[nH]c(=O)[nH]c1=O,inactive: 12.5%
14,CCOc1ccc(NS(=O)(=O)c2cc(NC(=O)CCC(=O)c3cccs3)ccc2Cl)cc1,inactive: 6.97%
15,Cc1ccc(CNC(=O)c2nc3nc(C)cc(C)n3n2)cc1,inactive: 8.06%
16,Cc1cc(C(F)(F)F)n2nc(C)c(-c3ccc(Cl)cc3)c2n1,inactive: 22.1%
17,COc1cc(/C=N/NC(=O)c2ccoc2C)ccc1O,inactive: 6.13%
18,Cc1cc(C(=O)Nc2ccc3ccccc3c2)c(C)o1,inactive: 16.7%
19,CCN(CC)c1ccc(N)cc1S(=O)(=O)Nc1ccccc1OC,inactive: -15.7%
20,CC(=O)N1CCC(N(CCN2CCOCC2)C(=S)Nc2ccc(C)cc2)CC1,inactive: 17.4%
21,CCCCn1c(N)c(Sc2ccc([N+](=O)[O-])cc2)c(=O)[nH]c1=O,inactive: -22.2%
22,Cn1c(=O)[nH]c(=O)c2c1nc(N1CCNCC1)n2CCOc1ccccc1,inactive: 14.1%
23,CCOC(=O)C(=O)Nc1ncc(Cl)s1,inactive: 29.8%
24,CC1(C)NC(=O)N(Cc2cc(=O)n3ccsc3n2)C1=O,inactive: -6.23%
25,COc1cc(CNc2ncnc3c2ncn3[C@H]2CN(Cc3cccc(C(F)(F)F)c3)C[C@@H](COC(C)=O)O2)cc(OC)c1OC,inactive: 3.32%
26,COCCn1cc(C(=O)NCc2ccco2)c2c3ccccc3n(C)c2c1=O,inactive: 4.44%
27,O=C(Cc1cccs1)Nc1ccccn1,inactive: -8.71%
